T1: human DLL3 (Homo sapiens, UniProt Q9NYJ7)
T1 construct: purchased ACRO DLL3-H52H4
T1 sequence (Q9NYJ7 27-492 limits assumed): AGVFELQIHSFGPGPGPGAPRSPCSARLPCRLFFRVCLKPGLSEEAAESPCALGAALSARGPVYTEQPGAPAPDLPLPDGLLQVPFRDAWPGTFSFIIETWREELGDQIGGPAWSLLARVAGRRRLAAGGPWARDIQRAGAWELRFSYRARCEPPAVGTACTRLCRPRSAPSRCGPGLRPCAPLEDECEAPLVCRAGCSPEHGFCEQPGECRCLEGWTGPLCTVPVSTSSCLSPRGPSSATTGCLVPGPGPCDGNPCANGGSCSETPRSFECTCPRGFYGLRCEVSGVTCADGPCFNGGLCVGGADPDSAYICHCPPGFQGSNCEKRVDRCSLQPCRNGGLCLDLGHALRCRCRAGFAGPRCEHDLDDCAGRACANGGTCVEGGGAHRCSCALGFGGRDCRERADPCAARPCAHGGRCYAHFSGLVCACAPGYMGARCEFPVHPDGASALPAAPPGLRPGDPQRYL


Experiments:
human DLL3 = molecular target: T1, human DLL3; assay: Biacore antibody affinity assay, human DLL3; assay type: binding
From the text: Test antibodies were affinity-captured with a Protein A biosensor chip (Cat. #29127556, Cytiva) for 18 seconds, and then the antigens human DLL3 (ACRO, DLL3-H52H4), cynomolgus monkey DLL3 (KACTUS, DLL-RM103), and mouse DLL3 (KACTUS, DLL-MM103) were allowed to flow over the surface of the chip for 180 seconds, followed by 600 seconds of dissociation. Reaction signals were detected in real time using a Biacore 8K (Cytiva) instrument to obtain association and dissociation curves. After the dissociation in each experimental cycle, the biosensor chip was washed and regenerated with a 10 mM glycine-hydrochloric acid solution (pH 1.5) (Cat. #BR-1003-54, Cytiva). A 1:1 model was fit to the data. The results are shown in Table 12-1, Table 12-2, and Table 12-3.

DMS53 (+) = assay: Toxicity of ADCs to cells with different DLL3 expression levels, DMS53; assay type: cell-based, human; details: 6 days, CTG
Procedure: (§1) The experimental procedure was as follows: • a. A cell suspension was prepared in fresh cell culture medium containing 10% FBS and added to a 96-well cell culture plate (Corning, 3903) at 135 μL/well, with columns 1 and 12 containing 135 μL of medium and no cells. The plate was incubated at 37° C. with 5% carbon dioxide for 16 h. • b. First-well working solutions of ADC samples (10×) were prepared in PBS, and with this concentration as the initial concentration, a serial dilution was performed with PBS by a corresponding factor. […] CTG (Promega, G7573) was added at 70 μL/well. The plate was incubated in the dark at room temperature for 10 min, and chemiluminescence was measured on Victor3. Data were processed using GraphPad Prism5, with the X-axis representing antibody or ADC concentration and the Y-axis representing light intensity.
(§2) The plating densities for different cells, first-well working solution concentrations (10×), and dilution factors are shown in Table 14.
(§3) The results are shown in Table 15 and FIG. 4A to FIG. 4E.

H1184 (+++) = assay: Toxicity of ADCs to cells with different DLL3 expression levels, H1184; assay type: cell-based, human; details: 6 days, CTG
Procedure: as §1, §2, §3

U-2OS (−) = assay: Toxicity of ADCs to cells with different DLL3 expression levels, U-2OS; assay type: cell-based; details: 6 days, CTG
Procedure: as §1, §2, §3

HT-29 (−) = assay: Toxicity of ADCs to cells with different DLL3 expression levels, HT-29; assay type: cell-based; details: 6 days, CTG
Procedure: as §1, §2, §3

CHO-K1 (−) = assay: Toxicity of ADCs to cells with different DLL3 expression levels, CHO-K1; assay type: cell-based; details: 6 days, CTG
Procedure: as §1, §2, §3

DMS53 xenograft tumors = assay: In vivo efficacy in CDX mouse model of DMS53 cells
H1184 xenograft tumors = assay: In vivo efficacy in CDX mouse model of H1184 cells
[1] = test system: DMS53/DLL3high and U-20S cells (co-culture); details: 6 days, FACS cell count

Molecule	ka (human DLL3) [M⁻¹ s⁻¹]	kd (human DLL3) [s⁻¹]	also measured
hAb6L1H1: humanized antibody of mAb6: hAb6VH1 (SEQ ID NO: 32) + hAb6VL1 (SEQ ID NO: 45), constant regions SEQ ID NO: 28/29 (antibody) heavy: EVQLVQSGAEVKKPGASVKVSCKASGYTFTDYYMNWVRQAPGQRLEWMGIINPYSGVTIYNHKFKGRVTITVDKSASTAYMELSSLRSEDTAVYYCARQDSLLDYAMDYWGQGTTVTVSS[human IgG1 constant region not written out] light: DIQMTQSPSSLSASVGDRVTITCHASQGISGNMGWLQQKPGKAPKGLIYHGANLEDGVPSRFSGSGSGTDFTLTISSLQPEDFATYYCVQYAQFPYTFGGGTKVEIKRTVAAPSVFIFPPSDEQLKSGTASVVCLLNNFYPREAKVQWKVDNALQSGNSQESVTEQDSKDSTYSLSSTLTLSKADYEKHKVYACEVTHQGLSSPVTKSFNRGEC	798000	0.00225	
hAb6L2H1: humanized antibody of mAb6: hAb6VH1 (SEQ ID NO: 32) + hAb6VL2 (SEQ ID NO: 46), constant regions SEQ ID NO: 28/29 (antibody) heavy: EVQLVQSGAEVKKPGASVKVSCKASGYTFTDYYMNWVRQAPGQRLEWMGIINPYSGVTIYNHKFKGRVTITVDKSASTAYMELSSLRSEDTAVYYCARQDSLLDYAMDYWGQGTTVTVSS[human IgG1 constant region not written out] light: DIQMTQSPSSLSASVGDRVTITCHASQGISGNMGWLQQKPGKAPKGLIYHGANLEDGVPSRFSGSGSGADYTLTISSLQPEDFATYYCVQYAQFPYTFGGGTKVEIKRTVAAPSVFIFPPSDEQLKSGTASVVCLLNNFYPREAKVQWKVDNALQSGNSQESVTEQDSKDSTYSLSSTLTLSKADYEKHKVYACEVTHQGLSSPVTKSFNRGEC	709000	0.00155	
hAb6L1H2: humanized antibody of mAb6: hAb6VH2 (SEQ ID NO: 33) + hAb6VL1 (SEQ ID NO: 45), constant regions SEQ ID NO: 28/29 (antibody) heavy: EVQLVQSGAEVKKPGASVKVSCKASGYTFTDYYMNWVRQAPGQRLEWMGIINPYSGVTIYNHKFKGRVTLTVDKSANTAYMELSSLRSEDTAVYYCARQDSLLDYAMDYWGQGTTVTVSS[human IgG1 constant region not written out] light: DIQMTQSPSSLSASVGDRVTITCHASQGISGNMGWLQQKPGKAPKGLIYHGANLEDGVPSRFSGSGSGTDFTLTISSLQPEDFATYYCVQYAQFPYTFGGGTKVEIKRTVAAPSVFIFPPSDEQLKSGTASVVCLLNNFYPREAKVQWKVDNALQSGNSQESVTEQDSKDSTYSLSSTLTLSKADYEKHKVYACEVTHQGLSSPVTKSFNRGEC	787000	0.00173	
hAb6L1H3: humanized antibody of mAb6: hAb6VH3 (SEQ ID NO: 34) + hAb6VL1 (SEQ ID NO: 45), constant regions SEQ ID NO: 28/29 (antibody) heavy: EVQLVQSGAEVKKPGASVKVSCKASGYTFTDYYMNWVRQAPGQRLEWIGIINPYSGVTIYNHKFKGRATLTVDKSANTAYMELSSLRSEDTAVYYCARQDSLLDYAMDYWGQGTTVTVSS[human IgG1 constant region not written out] light: DIQMTQSPSSLSASVGDRVTITCHASQGISGNMGWLQQKPGKAPKGLIYHGANLEDGVPSRFSGSGSGTDFTLTISSLQPEDFATYYCVQYAQFPYTFGGGTKVEIKRTVAAPSVFIFPPSDEQLKSGTASVVCLLNNFYPREAKVQWKVDNALQSGNSQESVTEQDSKDSTYSLSSTLTLSKADYEKHKVYACEVTHQGLSSPVTKSFNRGEC	812000	0.00224	
M6CHI: anti-DLL3 chimeric antibody: mAb6 variable regions, human IgG1 (SEQ ID NO: 28) and κ (SEQ ID NO: 29) constant regions (antibody) heavy: EVQLQQSGPVLVKPGASVKMSCKASGYTFTDYYMNWVKQSHGKSLEWIGIINPYSGVTIYNHKFKGKATLTVDKSSNTAYMELNSLTSEDSAVYYCARQDSLLDYAMDYWGQGTSVTVSS[human IgG1 constant region not written out] light: DILMTQSPSSMSVSLGDTVSITCHASQGISGNMGWLQQKPGKSFKGLIYHGANLEDGVPSRFSGSGSGADYSLTISSLESEDFADYYCVQYAQFPYTFGGGTKLEIKRTVAAPSVFIFPPSDEQLKSGTASVVCLLNNFYPREAKVQWKVDNALQSGNSQESVTEQDSKDSTYSLSSTLTLSKADYEKHKVYACEVTHQGLSSPVTKSFNRGEC	965000	0.000657	
ADC-2: antibody-drug conjugate of antibody Hu100 with compound L-9 (ecteinascidin derivative linker-drug), DAR n=3.72-4.88 (conjugate) heavy: EVQLVESGGGLVKPGGSLRLSCAASGFTFSDSGMHWIRQAPGKGLEWVSYISSGSSTIHYADTVKGRFTISRDNAKNSLYLQMNSLRAEDTAVYYCASPLYYYGRSYNAVAYWGQGTTVTVSS[human IgG1 constant region not written out] light: DIQMTQSPSSLSASVGDRVTITCHASQNINVWLSWYQQKPGKVPKLLIYKASDLHTGVPSRFSGSGSGTDFTLTISSLQPEDVATYYCQQGQSYPLTFGGGTKVEIKRTVAAPSVFIFPPSDEQLKSGTASVVCLLNNFYPREAKVQWKVDNALQSGNSQESVTEQDSKDSTYSLSSTLTLSKADYEKHKVYACEVTHQGLSSPVTKSFNRGEC			Imax (%) (DMS53 (+)): 99.37%; Imax (%) (H1184 (+++)): 99.71%; killing of DLL3-negative U-20S cells (in words) (U-2OS (−)): cannot kill; killing of DLL3-negative HT-29 cells (in words) (HT-29 (−)): cannot kill; killing of DLL3-negative CHO-K1 cells (in words) (CHO-K1 (−)): cannot kill; Day-18 TGI (%) (DMS53 xenograft tumors; 1.8 mg/kg intraperitoneally once a week, 2 administrations, Balb/c mouse): 58.71%; inhibition of growth of subcutaneous xenograft tumors of DMS53 cells (in words) (DMS53 xenograft tumors; dose of 1.8 mpk): significantly inhibit the growth; Day-18 TGI (%) (H1184 xenograft tumors; 1.8 mg/kg intraperitoneally once a week, 3 administrations, NDG mouse): 107%; inhibition of growth of H1184 xenograft tumors (in words) (H1184 xenograft tumors; dose of 1.8 mpk): significantly inhibit the growth; bystander cytotoxic effect (in words) [1]: significant bystander cytotoxic effects

From patent US20250057968A1, “ANTI-DLL3 ANTIBODY AND PHARMACEUTICAL USE THEREOF, AND ANTIBODY-DRUG CONJUGATE CONTAINING ANTI-DLL3 ANTIBODY” (Jiangsu Hengrui Pharmaceuticals Co., Ltd., priority 2021, published 2025)
